The chains are these.
B1: Caulobacter ParB omega fusion; a variant is named by its letters at X, in order, B8GW30 (parent)
chain: MESVVVGEPGMSEGRRGLGRGLSALLGEVDAAPAQAPGEQLGGSREAPIEILQRNPDQPRRTFREEDLEDLSNSIREKGVLQPILVRPSPDTAGEYQIVAGERAWRAAQRAGLKTVPIMVRELDDLAVLEIGIIENVQRADLNVLEEALSYKVLMEKFERTQENIAQTIGKSXSHVANXMRLLXLPDEVQSYLVSGELTAXHARAIAAAADPVALAKQIIEGGLSVRETEALARKAPNLSAGKSKGGRPPRVKDTDTQALESDLSSVLGLDVSIDHRGSTGTLTITYATLEQLDDLCNRLTRGI

This note sets out measurements from a collection of fitness landscapes (doi:10.1016/j.celrep.2020.107928).

In all, about 81,000 sequences were measured (“one-hybrid fitness for binding NBS DNA”: median about -0.1, highest 2% from about 0.36 on). Some of the results follow.

The variants in the experiment derive from B1. The experiment is described as follows: one-hybrid fitness for binding NBS DNA (the Noc-binding site; scaled: cognate 1, non-cognate 0); higher = stronger binding. The conditions noted are these: with NBS DNA site. In a few lines:
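In E. coli USO, a HIS3 reporter with its site placed 19 bp from the promoter was used to select Caulobacter ParB variants randomised at four specificity codons. Growth lasted 48 hours at 37°C on histidine-free M9 containing 0.1 mM IPTG and 5 mM 3-AT. Fitness was taken as the log change in variant-to-wild-type read ratio from Illumina sequencing of pre- and post-selection plasmids, rescaled between the non-cognate and cognate sites.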
For GMQS, the “one-hybrid fitness for binding NBS DNA” value is at most 0.2.
In the case of AMAV, the “one-hybrid fitness for binding NBS DNA” value is at most 0.2.
For NQAD, the “one-hybrid fitness for binding NBS DNA” value was at most 0.2.
Then HQPL, with at most 0.2; and CSAS, with at most 0.2; and DFKD, with at most 0.2.
The result for SRAT reads at most 0.2; that for THCT, at most 0.2; that for PLVM, at most 0.2.
The result for SHTM reads at most 0.2; that for NDKA, at most 0.2; that for YKQM, at most 0.2.
Regarding LEKY, the “one-hybrid fitness for binding NBS DNA” value is at most 0.2.
The result for KYLF reads at most 0.2; that for REDA, at most 0.2.
As for VVIR, the “one-hybrid fitness for binding NBS DNA” value was at most 0.2.
As for NKAN, the “one-hybrid fitness for binding NBS DNA” value is at most 0.2.
The result for WDSL reads at most 0.2; that for DGIV, at most 0.2.
Then QWMC, with at most 0.2; and LRRH, with at most 0.2; and GPYL, with at most 0.2.
Then TRPV, with at most 0.2.
For the variant WNNS, the “one-hybrid fitness for binding NBS DNA” value is at most 0.2.
Regarding LRED, the “one-hybrid fitness for binding NBS DNA” value is at most 0.2.
The result for IKIT reads at most 0.2; that for PLCN, at most 0.2.
Then VGPG, with at most 0.2; and VQQR, with at most 0.2; and LGQG, with at most 0.2.
Then GRCA, with at most 0.2.
As for DFLG, the “one-hybrid fitness for binding NBS DNA” value is at most 0.2.
The result for WDDG reads at most 0.2; that for QATS, 0.342; that for DITV, at most 0.2.
Then ASVE, with at most 0.2; and QRDC, with 0.227; and TGLV, with at most 0.2.
The result for RTAV reads at most 0.2; that for HCKF, at most 0.2; that for KCIC, at most 0.2.
Turning to MTLD, the “one-hybrid fitness for binding NBS DNA” value was at most 0.2.
YPII: the “one-hybrid fitness for binding NBS DNA” value was at most 0.2.
The result for ALAD reads at most 0.2; that for CGDR, at most 0.2; that for FPKC, at most 0.2.
The result for MIGS reads at most 0.2.
TKKS: the “one-hybrid fitness for binding NBS DNA” value was at most 0.2.
ICKR: the “one-hybrid fitness for binding NBS DNA” value was 0.273.
Then PACC, with at most 0.2; and KKSR, with 0.272; and HRMY, with at most 0.2.
Then LCAD, with at most 0.2; and NFQS, with at most 0.2.
Then ERTY, with at most 0.2.
In the case of QVSS, the “one-hybrid fitness for binding NBS DNA” value came out at 0.25.
Turning to SKLI, the “one-hybrid fitness for binding NBS DNA” value was at most 0.2.
Then SQYC, with at most 0.2; and MKLE, with at most 0.2.
As to CHEA, the “one-hybrid fitness for binding NBS DNA” value is at most 0.2.
The result for LCPQ reads at most 0.2.
Then FRTV, with at most 0.2; and CVCC, with at most 0.2; and AILR, with at most 0.2.
In the case of GVRG, the “one-hybrid fitness for binding NBS DNA” value is at most 0.2.
The result for HTQR reads at most 0.2; that for YKTQ, at most 0.2.
Then QQSS, with 0.436; and YEAM, with at most 0.2.
The result for PELA reads at most 0.2; that for LLCY, at most 0.2.
Turning to QIDN, the “one-hybrid fitness for binding NBS DNA” value was at most 0.2.
Then DCRV, with at most 0.2; and TKEL, with at most 0.2; and AHIG, with at most 0.2.
With NNPS, the “one-hybrid fitness for binding NBS DNA” value is at most 0.2.
Then PMKG, with at most 0.2; and HDLQ, with at most 0.2.
As for ALNC, the “one-hybrid fitness for binding NBS DNA” value is at most 0.2.
Then INAR, with at most 0.2.
The result for YPTV reads at most 0.2; that for RRNG, 0.343; that for PEKG, at most 0.2.
Then RVSL, with at most 0.2; and AQSY, with at most 0.2.
PQPN: the “one-hybrid fitness for binding NBS DNA” value was at most 0.2.
Then PNVR, with at most 0.2; and EFLS, with at most 0.2; and KCEV, with at most 0.2.
For the variant FSMT, the “one-hybrid fitness for binding NBS DNA” value was at most 0.2.
Then SSSY, with at most 0.2; and MSIC, with at most 0.2.
Then KQHW, with at most 0.2; and EGVS, with at most 0.2.
As for SNLN, the “one-hybrid fitness for binding NBS DNA” value is at most 0.2.
The result for VMGW reads at most 0.2.
Then RPMF, with at most 0.2.
In the case of IFLH, the “one-hybrid fitness for binding NBS DNA” value was at most 0.2.
